# Results published in PubChem BioAssay AID485313 (National Center for Advancing Translational Sciences (NCATS), 2010).
# About 7,600 (2.4%) of roughly 320,000 compounds were called active. The shares of active, inactive and inconclusive entries below differ from those in the screen. Calls follow the shape of the dose curve; as a rule, active = well fitted activation curve with a large enough effect; inconclusive = small, poorly fitted or top-dose-only effect; inactive = no such curve, though single readings can be large or run the other way. No potency is given beside an inconclusive call; the fits are too rough.
# Experiment: qHTS Assay for NPC1 Promoter Activators; also: nearly all actives have a fitted effect of over 60% in size;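 as to activation: reporter is driven by a mutant NPC1 promoter; % of control where 0% means no effect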
# Details: Huh7 NPC1 promoter luciferase reporter, 24 h; series mostly up to 9.22 µM; activation: at the top concentration
# How it was run: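 Huh7 cells stably carrying NPC1 promoter–luciferase, plated in Opti-MEM with 10% FBS for 2 h, were exposed to compound in DMSO for 24 h at 37 °C; luciferase reagent was added for 10 min and luminescence read.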
# Potency is read from the fitted curve at half-maximal effect; tags tell the direction and shape of the fitted curve.
Structure (SMILES),Potency,activation
Cc1cc2oc(C(=O)Nc3cccnc3)c(C)c2cc1C,"inconclusive [activator, single point]",
CCOc1ccc(/C=N/Nc2cc(C)nc(N3CCOCC3)n2)cc1,,inactive: 22.6%
CCOC(=O)c1ccc(NC(=O)c2ccccc2C)cc1,"inconclusive [activator, partial curve]",
CN(C)S(=O)(=O)c1ccc(NC(=S)NC(=O)C2CCC2)cc1,,inactive: -3.58%
COC(=O)c1cccc(NC(=O)c2ccc3c(c2)C(=O)N(C(C)(C)C)C3=O)c1,"inconclusive [activator, single point]",
c1ccc(CSc2ccc(-c3cccnc3)nn2)cc1,"inconclusive [activator, single point]",
CN(C)c1ccc(/C=N/NC(=O)c2cc(-c3ccc4c(c3)OCO4)n[nH]2)cc1,"inconclusive [activator, partial curve]",
O=C(Nc1nnc(C2=COCCO2)o1)c1ccc(S(=O)(=O)N2CCCCC2)cc1,,inactive: -5.02%
Nc1[nH]n(-c2ccccc2)c(=O)c1N=Nc1ccccc1[N+](=O)[O-],active: 2000 nM,
O=C(COC(=O)c1ccco1)Nc1ccc2c(c1)OCO2,,inactive: -1.37%
Cc1ccccc1CNC(=O)Nc1ccc(Cl)cc1,"inconclusive [activator, partial curve]",
Cn1c(-c2ccc3nc(N)sc3c2)nc2cc(N)ccc21,"inconclusive [activator, single point]",
O=C(NCC1CCCO1)c1sc2ccccc2c1Cl (centres undefined),"inconclusive [activator, partial curve]",
Cc1nc2c(-c3ccccc3)cnn2c(N)c1-c1ccccc1,"inconclusive [activator, partial curve]",
O=C(Nc1nc2ccccc2[nH]1)c1ccccc1F,"inconclusive [activator, partial curve]",
Cc1csc(NC(=O)c2ccc(S(=O)(=O)N(C)c3ccccc3)cc2)n1,,inactive: 8.46%
O=c1oc2c(CN3CCOCC3)c(O)ccc2c2ccccc12,active: 3980 nM,
COc1ccc(CNC(=O)CN2C(=O)NC(C)(c3ccc(C(C)(C)C)cc3)C2=O)cc1 (centres undefined),"inconclusive [activator, single point]",
C/C(=N\Nc1nc2ccccc2[nH]1)c1ccccn1,"inconclusive [activator, partial curve]",
CC(NC(=O)CN1CCN(CC(=O)Nc2ccccc2Cl)CC1)c1ccc(Br)cc1 (centres undefined),,inactive: 0.463%
CC(C)C1O/C(=N/C(=O)Nc2ccc(Cl)c(Cl)c2)NC1=O (centres undefined),,inactive: -0.835%
Cc1cc(C)c[n+](-c2[nH]c(=O)sc2/C=N/N=C(\N)[S-])c1,,inactive: -1.48%
CC(C)(C)C(=O)N1CCN(c2nc3ccccc3s2)CC1,active: 2510 nM,
Cc1nc(NC(=O)c2cccc(-c3cc4ccccc4oc3=O)c2)ccc1Br,"inconclusive [activator, partial curve]",
CCOC(=O)c1cnc2c(C(=O)OCC)cnn2c1N,"inconclusive [activator, partial curve]",

Structure (SMILES),Potency,activation
O=C(CSc1nc2cc(Cl)ccc2o1)Nc1ccc(N2CCOCC2)cc1,"inconclusive [activator, partial curve]",
CCn1c(SCC(=O)c2ccccc2)nnc1-c1cnccn1,"inconclusive [activator, partial curve]",
O=C(/C=C/C=C/c1ccc2c(c1)OCO2)N1CCCCC1,active: 2510 nM,
CC(=O)Nc1cc(Cl)c(N=Cc2ccc(O)cc2O)cc1Cl,,inactive: 3.07%
Cc1ccc(N=c2sc(C)c(C)n2C)cc1,"inconclusive [activator, single point]",
O=[N+]([O-])c1ccc2nc(-c3ccccc3)cc(-c3ccccc3)c2c1,,inactive: -7.32%
c1ccc(CSc2nnc(-c3ccncc3)o2)cc1,"inconclusive [activator, partial curve]",
O=c1c2ccccc2cnn1CCOc1ccccc1,active: 89.1 nM,
C=C(C)CN=C1NN=C(c2cc(C)n(-c3ccc(C)cc3)c2C)CS1,"inconclusive [activator, single point]",
N#Cc1ccc(-c2cn3c(n2)SCC3)cc1,"inconclusive [activator, single point]",
COc1cc(-c2nc(-c3ccccn3)no2)cc(OC)c1OC,"inconclusive [activator, single point]",
COc1ccc2c(c1O)C(=O)c1ccccc1C2=O,"inconclusive [activator, single point]",
CC(=O)c1cccc(NC(=O)N2CCOCC2)c1,"inconclusive [activator, full curve, poor fit]",
Cc1cc(C(=O)CS(=O)(=O)c2ccccc2)cc(C)c1O,,inactive: 28%
Cc1cccc(C(=O)c2c(N)sc3c2CCC(C)C3)c1 (centres undefined),"inconclusive [activator, single point]",
CCC(C)c1ccc(OCc2ccc(C(=O)O)o2)cc1 (centres undefined),"inconclusive [activator, full curve, poor fit]",
Cc1ccc(NC(=O)c2nc[nH]c2C(=O)N2CCN(C(=O)OC(C)(C)C)CC2)cc1,,inactive: -3.28%
CCCOc1cccc(NC(=O)c2c(-c3ccccc3)noc2C)c1,,inactive: -0.359%
COCCNS(=O)(=O)c1ccc(-c2ccc(S(=O)(=O)NCCOC)cc2)cc1,"inconclusive [activator, partial curve]",
O=C(CSc1nnc2ccccn12)N1CCc2ccccc2C1,"inconclusive [activator, single point]",
C[n+]1cc[nH]c1SCC(=O)c1ccccc1,"inconclusive [activator, partial curve]",
O=C(CSc1ccccc1)Nc1nc2ccccc2[nH]1,"inconclusive [activator, partial curve]",
CC(C)CC(=O)NC(=S)Nc1sc2c(c1C(N)=O)CCC2,"inconclusive [activator, partial curve]",
O=C(O)c1cccc(N=NN2CCCCCC2)c1,active: 100 nM,
